#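 Exposure lasted 48 hours, with cells grown in 96-well plates and compounds tested at five concentrations. At the GI50, growth is halved.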 Activity calls are given as the source filed them. Rule as the data show it: active = GI50 up to about 1.1 µM and inactive = higher.
# Test system: NCI-H322M
# Test: inhibition of tumour cell growth, NCI panel, 48 h
row,Compound,GI50
1,Nc1nc(O)c(N)c(NCCOCP(=O)(O)O)n1,inactive: > 100 µM
2,COC1C(OC(=O)c2ccc(C)[nH]2)C(O)C(Oc2ccc3c(O)c(NC(=O)c4ccc(O)c(CC=C(C)C)c4)c(=O)oc3c2Cl)OC1(C)C (centres undefined),inactive: 20.3 µM
3,Oc1cc(-c2cccc(Br)c2)nc2cc3c(cc12)OCO3,inactive: 8.75 µM
4,Nc1nc(N)c(CCCCc2ccccc2)c(N)n1,inactive: > 100 µM
5,O=[N+]([O-])c1ccc(Nc2cccc3c4cc[nH]c(-c5ccccc5)c-4nc23)c([N+](=O)[O-])c1,inactive: > 100 µM
6,CCNCCCCNCCCCNCCCCNCCCCNCC,inactive: 23.2 µM
7,O=C1Nc2ccc(Br)cc2/C1=N/Nc1ccc([N+](=O)[O-])cc1,inactive: 14 µM
8,Clc1cccc(Cl)c1/C=N/C12CC3CC(CC(C3)C1)C2,inactive: > 10 µM
9,O=C1NC(=S)NC(=O)C1C(c1ccccc1[N+](=O)[O-])C1C(=O)NC(=S)NC1=O.c1ccncc1,inactive: > 100 µM
10,COC(=O)C(C)Oc1ccc(O)cc1 (centres undefined),inactive: > 100 µM
11,CC(C)(C)c1ccc2c(c1)CNCCNCCNCc1cc(C(C)(C)C)ccc1OCC1(CO2)COc2ccc(C(C)(C)C)cc2CNCCNCCNCc2cc(C(C)(C)C)ccc2OC1,active: 0.912 µM
12,O=C1C(C2=[N+]([O-])c3ccccc3C2=O)=[N+]([O-])c2ccccc21,inactive: 34.9 µM
13,C=C1CC(Cn2ccc(=O)[nH]c2=O)(c2ccc(Cl)cc2)OC1=O (centres undefined),inactive: 17 µM
14,ON[C@H]1C[C@@H](n2cnc3c(NC4CC4)ncnc32)[C@H](O)[C@@H]1O,inactive: > 100 µM
15,Cc1ccc(C2(c3ccc(F)cc3)OC(=O)c3ccccc32)c(O)c1 (centres undefined),inactive: 13 µM
16,O=c1[nH]nc(Cc2ccccc2)[nH]1,inactive: > 100 µM
17,COC1(OC)C(/C(N)=C\O)=NC(C)(C)N1O,inactive: > 100 µM
18,NCCCN1CCN(CC(=O)O)CCN(CCCN)CCN(CC(=O)O)CC1,inactive: > 81.5 µM
19,C#CCOC(=O)C(=[N+]=[N-])C(=O)CC(C)C,inactive: > 10 µM
20,Cc1cc(O)c2c(c1)CC(O)C1=C2C(=O)c2c(O)ccc(OC3CC(O)C(OC4CC(OC5CCC(O)C(C)O5)C(O)C(C)O4)C(C)O3)c2C1=O (centres undefined),inactive: 2.47 µM
21,CCOC(=O)C1C(c2ccc(Cl)cc2Cl)NC(c2ccc(C)cc2)C(C(=O)OC)S1(=O)=O (centres undefined),inactive: > 100 µM
22,CCN(CC)CC[S+]([O-])c1c2cc(OC)ccc2nc2ccc(OC)cc12 (centres undefined),inactive: 16.3 µM
23,O=C1Nc2ccccc2/C1=C\c1c(-c2ccccc2)nc2n1CCS2,inactive: 23.1 µM
24,CCCCI(O)OS(=O)(=O)c1ccc(C)cc1,inactive: > 100 µM

row,Compound,GI50
1,O=C1NC(=O)c2ccccc2/C1=C/c1ccc2c(c1)OCO2,inactive: 38.7 µM
2,Cn1cc2ccccc2c1-c1nc(F)nc(OCC(=O)[C@H]2CCC3[C@@H]4CCC5=CC(=O)CC[C@]5(C)C4[C@@H](O)C[C@@]32C)n1 (some centres undefined),inactive: 18.8 µM
3,CN(N=O)C(=O)NC(CCCCNC(=O)OCc1ccccc1)C(=O)OCc1ccccc1 (centres undefined),inactive: > 100 µM
4,COC1(OC)C2(Cl)C(Cl)=C(Cl)C1(Cl)C1c3ccc(C(C)=O)c4cccc(c34)C12 (centres undefined),inactive: 18 µM
5,C[C@H](O)C1CC(Cn2nnc3c(N)ncnc32)C1(C)C (some centres undefined),inactive: > 100 µM
6,CC(C)N1CC2CN(Cc3ccccc3)CC(C1)C2=O,inactive: > 100 µM
7,Cc1nc2ccccn2c1/N=N/c1ccc(C(=O)NN)cc1,inactive: 36 µM
8,Cc1cc(Oc2cnc(=O)[nH]c2)cs1,inactive: > 100 µM
9,Cn1cnc([N+](=O)[O-])c1Sc1nc2cccnc2s1,inactive: 53.1 µM
10,CCOn1cc(C[C@@]2(O)C(=O)OC3[C@@H](O)CO[C@@]32O)c2ccccc21 (some centres undefined),inactive: > 100 µM
11,CN1CCN(CCCBr)CC1,inactive: > 100 µM
12,COC(=O)c1onc(C2OC(C)(C)OC2C(O)COC(c2ccccc2)(c2ccccc2)c2ccccc2)c1C(=O)OC (centres undefined),inactive: > 100 µM
13,O=c1[nH]ncc2[nH]c3c(c12)CCc1ccccc1-3,inactive: 37.2 µM
14,COC1=CC(=O)c2c(O)c3c(c(O)c2C1=O)OC1(Oc2c(cc4cc(C)oc(=O)c4c2O)CC1O)C3O (centres undefined),inactive: 38.5 µM
15,Cn1c(=O)[nH]c2[nH]c3ccccc3c2c1=O,inactive: > 100 µM
16,C[Si](C)(C)OC1CC(=O)OC1n1cc(F)c(=O)[nH]c1=O (centres undefined),inactive: > 34.4 µM
17,O=C(NNC(=S)Nc1ccc(Cl)cc1)C12CC3CC(CC(C3)C1)C2,inactive: 5.45 µM
18,COc1ccc2c(c1)CCN=C2c1ccccc1CCCCl,inactive: 55.5 µM
19,CC(=O)OC1COC(n2c(N)c(C#N)c(C)c(C#N)c2=S)C(OC(C)=O)C1OC(C)=O (centres undefined),inactive: > 100 µM
20,c1ccc(CSC2(SCc3ccccc3)CCCCC2)cc1,inactive: > 10 µM
21,Cc1cc(C)nc(NS(=O)(=O)c2ccc(NC(=O)c3cccc4c(NNc5ccc(S(=O)(=O)N=C(N)N)cc5)c5ccccc5nc34)cc2)n1,inactive: > 50 µM
22,CCCc1cc(OC(=O)c2c(O)cc(OC)cc2CCC)cc(O)c1C(=O)O,inactive: 21.3 µM
23,OCC1OC(NCCNCCNC2OC(CO)C(O)C(O)C2O)C(O)C(O)C1O (centres undefined),inactive: > 100 µM
24,COc1cc(C(=O)C/C(CCC(=O)Nc2ccccc2[N+](=O)[O-])=N\NC(=O)CC#N)ccc1O,inactive: > 100 µM

row,Compound,GI50
1,COC(=O)C(=O)C(C(=O)C(=O)Nc1ccc([N+](=O)[O-])cc1[N+](=O)[O-])c1nc2ccc(Cl)cc2nc1O (centres undefined),inactive: > 100 µM
2,COC1=CCC=C(C[C@@H]2NCCc3cc(OC)c(OC)cc32)C1,inactive: > 100 µM
3,CC(C)C(Nc1c2ccccc2[n+]([O-])c2ccccc12)C(=O)O (centres undefined),inactive: > 100 µM
4,C=CCN(N=O)C(=O)N(CCC)CCCC(NC(C)=O)C(=O)NCc1ccccc1 (centres undefined),inactive: > 100 µM
5,O=C1N(c2ccc(Cl)cc2)C(=O)C2(SC=NN2Cc2ccccc2)N1c1ccc(Cl)cc1 (centres undefined),inactive: > 100 µM
6,O=[N+]([O-])c1ccc(CSC2=C(c3ccc(Cl)cc3)S/C(=C3\SC(SCc4ccc([N+](=O)[O-])cc4)=C(c4ccc(Cl)cc4)S3)S2)cc1,inactive: > 100 µM
7,CCc1cn2c(/C=N/N=C(N)N)c(-c3cc(C)c(Cl)cc3Cl)nc2s1,inactive: 1.92 µM
8,Brc1ccccc1C1SCc2nc3ccccc3n21 (centres undefined),inactive: 30.3 µM
9,CC(C)OP(=O)(OC(C)C)/C(C#N)=C/c1ccco1,inactive: > 100 µM
10,O=C1NC2(CCCC2)/C(=N\O)C12CCCC2,inactive: > 100 µM
11,N#Cc1c(-c2ccc(Cl)cc2Cl)nc2[nH]nc(S)n2c1=O,inactive: > 100 µM
12,CCN(CC)CSc1nc2ccccc2o1,inactive: > 100 µM
13,CCC(O)CCCCCCCCCCCCCCC(=O)O (centres undefined),inactive: 68.5 µM
14,CC(C)[C@@H]1CC[C@@H](C)C[C@H]1OC(=O)c1c2n(c3ccccc13)C[C@H]1OC(C)(C)O[C@@H]21,inactive: 18.5 µM
15,C=CCOCn1ccc(NC(=O)c2ccccc2)nc1=O,inactive: > 100 µM
16,COc1ccc(Br)c(CCCCC(=O)O)c1,inactive: > 100 µM
17,O=C1Nc2ccccc2S/C1=C\c1ccc(C(F)(F)F)cc1,inactive: > 100 µM
18,COC(=O)C1=C(C)NC(C)=C(C(=O)OC)C1c1ccc(N=O)cc1,inactive: > 100 µM
19,CC[n+]1[b-](C(C)(C)C)n(/N=C/C(C)(C)C)[b-](C(C)(C)C)[n+]1CC,inactive: > 100 µM
20,COc1ccc(/C=C2\CCC(CNc3cc(C)on3)C2=O)cc1 (centres undefined),inactive: > 100 µM
21,CCCCCCCCCCCCCC(=O)CC(=O)c1c(O)cccc1O,inactive: > 100 µM
22,CC1(CNCc2ccccc2)CC(CCc2ccccc2)N(C(=O)c2ccc([N+](=O)[O-])cc2)C1Cc1ccc(O)cc1 (centres undefined),inactive: 15.9 µM
23,C/C(=N\NC(=S)NCc1ccccc1)c1nc2cccnc2[nH]1,inactive: 10.3 µM
24,Cc1ccc(/C=C2\NC(=S)N(CN3CCOCC3)C2=O)cc1,inactive: > 100 µM

row,Compound,GI50
1,Cc1cc(O)c2c(c1)C(O)(c1ccc3c(c1O)C(=O)c1c(O)cc(C)cc1C3(O)C1OC(CO)C(O)C(O)C1O)c1cccc(O)c1C2=O (centres undefined),inactive: 17.4 µM
2,CCOP(=O)(CCCC(O)CNc1cc(Cl)nc(N)n1)OCC (centres undefined),inactive: > 100 µM
3,COCCOCCOC1=CC(=O)c2c(O)ccc(O)c2C1=O,inactive: 1.6 µM
4,COc1cc(/C=C2\S/C(=N/Nc3nc(-c4ccc(Br)cc4)cs3)NC2=O)cc(OC)c1OC,inactive: 21.9 µM
5,CCOC(=O)c1c(N=P(c2ccccc2)(c2ccccc2)c2ccccc2)nnc(-c2ccccc2)c1-c1ccccc1,inactive: > 100 µM
6,CC#C[C@]1(O)CCC2[C@@H]3CCC4=CC(=O)CCC4=C3[C@@H](c3ccc(N(C)C)cc3)C[C@@]21C (some centres undefined),inactive: 22.5 µM
7,N=C(N)NS(=O)(=O)c1ccc(NC(=O)c2ccc3nc4ccccc4c(N)c3c2)cc1,inactive: 69.8 µM
8,CCN(CC)C(=S)/N=C(\SC(=S)N(CC)CC)c1ccccc1,inactive: > 51.1 µM
9,O=C(CCN1CCC(CCO)CC1)Nc1ccc2c(c1)C(=O)c1ccc(NC(=O)CCN3CCC(CCO)CC3)cc1C2=O,inactive: 4.39 µM
10,CNC(=O)CCCNC(=O)CCCC(=O)OC,inactive: > 100 µM
11,CC(Nc1ccc(Cl)c(Cl)c1)c1ccncc1 (centres undefined),inactive: 2.21 µM
12,CCOC(=O)c1cc(/C=C/C(C)=C/C(=O)OC)n(C)c1C,inactive: > 100 µM
13,CNC(C)Cc1ccccc1O (centres undefined),inactive: > 100 µM
14,NNC1=Nc2ccc(Cl)cc2C(=S)N2CSCC12 (centres undefined),inactive: > 100 µM
15,N/N=c1\[nH]c2ccccc2o1,inactive: > 100 µM
16,O=S(=O)(O)SC/C=C\CSS(=O)(=O)O,inactive: > 100 µM
17,CN1OC2OC(=O)OC2[C@H]1[C@H]1O[C@H](c2ccccc2)OC1(C)c1cc(OC(=O)c2ccccc2)ccc1OC(=O)c1ccccc1 (some centres undefined),inactive: > 50 µM
18,COc1ccc2cc(C(C)C(=O)N3CCOC3=O)ccc2c1 (centres undefined),inactive: > 100 µM
19,Cc1ccc(/C=C2\CCCc3ccccc3C2=O)cc1,inactive: 31 µM
20,COc1ccc2nc3cc(Cl)ccc3c(NC(C)CCCN(CCCl)CCCl)c2c1 (centres undefined),active: 0.783 µM
21,C[N+](C)(N)CCC[N+](C)(C)N,inactive: > 100 µM
22,NCCOCCOCC(=O)O,inactive: > 100 µM

# Source: ChEMBL document CHEMBL1201862, “PubChem BioAssay data set” (2004)
